# Measured values reported in article PMC4336329 (PLoS ONE, 2015).
# Hit rate of the full screen: of about 310,000 compounds, about 2,200 (0.71%) showed an effect of 50% or more. Effects have a minus sign here. The list shows a part of the results.
# Molecular target: human ether-à-go-go-related gene (hERG) potassium channel (human, UniProt Q12809)
# Test: primary screen, population patch clamp on CHO cells stably expressing hERG
# human ether-à-go-go-related gene (hERG) potassium channel, sequence (Q12809 whole entry, looked up): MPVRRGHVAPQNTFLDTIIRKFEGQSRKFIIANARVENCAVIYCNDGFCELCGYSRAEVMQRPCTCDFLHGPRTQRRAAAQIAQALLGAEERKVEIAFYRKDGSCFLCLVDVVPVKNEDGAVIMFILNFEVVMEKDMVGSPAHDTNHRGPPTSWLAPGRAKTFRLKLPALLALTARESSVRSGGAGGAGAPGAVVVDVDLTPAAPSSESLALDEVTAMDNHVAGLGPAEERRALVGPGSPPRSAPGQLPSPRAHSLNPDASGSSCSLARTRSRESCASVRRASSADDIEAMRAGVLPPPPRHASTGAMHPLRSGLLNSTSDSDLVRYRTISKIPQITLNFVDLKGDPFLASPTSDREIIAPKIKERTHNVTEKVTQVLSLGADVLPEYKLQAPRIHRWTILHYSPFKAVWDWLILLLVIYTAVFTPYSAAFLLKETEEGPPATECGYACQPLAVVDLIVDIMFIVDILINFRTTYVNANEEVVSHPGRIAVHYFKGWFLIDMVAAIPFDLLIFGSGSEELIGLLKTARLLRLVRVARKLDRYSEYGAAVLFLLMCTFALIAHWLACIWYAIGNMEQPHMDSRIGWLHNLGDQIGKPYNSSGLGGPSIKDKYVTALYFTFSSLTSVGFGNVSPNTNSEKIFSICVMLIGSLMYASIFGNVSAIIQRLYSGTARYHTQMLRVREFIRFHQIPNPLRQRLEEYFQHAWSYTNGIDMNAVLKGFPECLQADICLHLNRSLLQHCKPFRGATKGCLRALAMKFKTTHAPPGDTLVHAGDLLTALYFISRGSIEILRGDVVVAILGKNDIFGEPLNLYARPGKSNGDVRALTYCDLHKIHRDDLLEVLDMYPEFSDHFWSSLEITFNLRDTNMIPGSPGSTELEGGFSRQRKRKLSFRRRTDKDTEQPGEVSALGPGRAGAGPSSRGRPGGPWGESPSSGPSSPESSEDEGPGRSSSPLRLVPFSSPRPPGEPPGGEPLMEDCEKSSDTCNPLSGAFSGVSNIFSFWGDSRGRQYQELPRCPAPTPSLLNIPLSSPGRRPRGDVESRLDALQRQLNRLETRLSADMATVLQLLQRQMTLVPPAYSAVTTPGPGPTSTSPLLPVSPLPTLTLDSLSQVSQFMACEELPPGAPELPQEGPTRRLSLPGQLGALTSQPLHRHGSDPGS
row,Compound,"hERG current change (%, negative = inhibition) at 1uM [%]"
1,COc1cccc(N=Cc2c(O)n(-c3cccc(C)n3)c(=O)c3ccccc23)c1,6.9
2,COc1ccc(N(CC(=O)Nc2ccc(C)c(C)c2)S(=O)(=O)c2c(C)n[nH]c2C)cc1,14.5
3,Cc1cc(C(=O)N2CCCC(N3CCN(c4cccc(C(F)(F)F)c4)CC3)C2)n[nH]1 (centres unmarked),-25.5
4,COc1ccccc1OCc1ccc(C(=O)NCC2CCCO2)o1 (centres unmarked),2.68
5,NC(=O)c1ccccc1OCCOCCOCCOc1ccccc1C(N)=O,-7.98
6,COc1ccc(C2CC(c3cccs3)=NN2c2ccc(C=O)cc2)cc1 (centres unmarked),6.16
7,COc1cc(C(O)c2nc3ccccc3n2C)cc(OC)c1OC (centres unmarked),1.48
8,O=C(COC(=O)CNC(=O)c1cccc([N+](=O)[O-])c1)Nc1cccc(S(=O)(=O)N2CCCC2)c1,15.3
9,CC(=O)N1C(=O)C2(Nc3ccccc3N2)c2ccccc21,14
10,Cc1ccc(/C=C2/SC(=S)N(CCCC(=O)Nc3cc([N+](=O)[O-])ccc3O)C2=O)cc1,14.2
11,CCOC(=O)CN(C)S(=O)(=O)c1ccc(-c2cc(C(=O)OC)sc2C(F)(F)F)cc1,10.7
12,O=C(Nc1cc(S(=O)(=O)N2CCCCC2)ccc1N1CCOCC1)c1cc(=O)[nH]c2ccccc12,16.8
13,Cc1[nH]nc2c1C(c1ccsc1)C(C#N)=C(N)O2 (centres unmarked),13.7
14,Cc1nnc(N2C(=O)C(O)=C(C(=O)c3ccco3)C2c2cccc3ccccc23)s1 (centres unmarked),4.71
15,O=C1OC(Nc2ccc(F)cc2F)c2ccccc21 (centres unmarked),8.3
16,Cc1noc(C)c1S(=O)(=O)N1CCCN(C(=O)/C=C/c2ccccc2F)CC1,-31.2
17,O=C(CSc1nc2c(cnn2-c2ccc(F)cc2)c(=O)[nH]1)N1CCOCC1,7.21
18,COc1cccc(/C=N/n2c(N)c(S(=O)(=O)c3cccs3)c3nc4ccccc4nc32)c1OC,9
19,CC(CNc1ccc([N+](=O)[O-])cc1)NC(=O)c1ccccc1Br (centres unmarked),-25.9

row,Compound,"hERG current change (%, negative = inhibition) at 1uM [%]"
1,Cc1ccc(-c2ccc(/C=N/n3cnnc3)o2)cc1Cl,7.15
2,CNC(=S)N=Nc1c(O)[nH]c2ccccc12,4.56
3,Cc1ccccc1OCC(=O)O/N=C(\N)c1ccncc1,11.6
4,Cc1cccc(C(=O)OCC(=O)NC(C)CCc2ccccc2)c1O (centres unmarked),4.34
5,CN1CCc2c(sc3nc(NN)n(-c4ccc(Cl)cc4)c(=O)c23)C1,14.9
6,O=C1CC(NS(=O)(=O)c2cccs2)CN1c1ccc(F)cc1 (centres unmarked),13.9
7,CC(C)N(C)C(=O)c1ccc(OC2CCN(CCc3ccccc3)CC2)cc1,2.05
8,CCc1ccccc1NC(=O)N1CCc2ccccc21,5.07
9,CC1=CC(C)(C)NC(=S)N1c1ccccc1,13.6
10,CCNc1ccc(S(=O)(=O)N(C)C)cc1NCC(=O)Nc1ccc(F)c(Cl)c1,4.45
11,CC(C)c1c(C(=O)N/N=C/c2ccsc2)nnn1-c1nonc1N,19.6
12,CCCCC1=CC2=CC(=O)C(C)(OC(=O)CC)C(=O)C2=CN1C1CCCC1 (centres unmarked),-21.6
13,O=S(=O)(NC1CCCCCC1)c1ccc(Br)s1,4.06
14,CC1CCCN(Cc2nc3c(c(=O)n(C)c(=O)n3C)n2CCc2ccccc2)C1 (centres unmarked),0.562
15,CC(C)NC(=O)c1onc(CSc2ccc(F)cc2)c1C(=O)NC(C)C,9.57
16,CCN1CCN(C(=O)C2CCN(S(=O)(=O)c3ccc4c(c3)NC(=O)C(C)S4)CC2)CC1 (centres unmarked),5.28
17,COc1ccc(OC)c(Nc2nnc(C)c(=O)[nH]2)c1,11.5
18,CSCCC(NS(=O)(=O)c1ccccc1F)C(=O)Nc1ccncc1 (centres unmarked),2.97
19,Cc1nn(-c2ccccc2)c(Cl)c1/C=N/NC(=O)c1ccn[nH]1,5.25

row,Compound,"hERG current change (%, negative = inhibition) at 1uM [%]"
1,CN(C)C1(CNC(=O)Nc2ccc(Cl)c(Cl)c2)CCCCC1,3.77
2,COc1ccc2c(c1)C(SCC(=O)NCCc1ccccc1)CC(C)(C)O2 (centres unmarked),2.65
3,CC(C)C[C@H](NC(=O)N1CCn2c1nc1ccccc12)C(=O)N[C@@H](C(=O)O)c1ccccc1,-12.4
4,Cc1csc(SCC(=O)NCc2ccccc2)n1,3.8
5,COc1cc(C(=O)Nc2cccc(-c3nc4ncccc4o3)c2C)cc(OC)c1OC,6.28
6,COC(=O)C1=CO[C@@H](O[C@@H]2O[C@H](CO)[C@@H](O)[C@H](O)[C@H]2O)C2C1C[C@H](O)[C@@H]2C (some centres unmarked),12.2
7,COc1ccc(S(=O)(=O)N2CCN(C)CC2)cc1,6.17
8,CCc1cccc(CC)c1N(COC)C(=O)Cn1cnc2ccccc21,6.19
9,CC1CCCCN1C(=O)Cc1ccc(Cl)cc1 (centres unmarked),-7.41
10,CC1CCCCN1C(=O)CSc1nnc(-c2ccco2)n1CC1CCCO1 (centres unmarked),12
11,COc1ccc(-c2cc3ccccc3n2CC(O)CN2CCN(CCO)CC2)cc1 (centres unmarked),-7.99
12,Cc1nn(C(=O)c2cccs2)c(N)c1-c1ccccc1,8.56
13,Fc1ccc(C2=Nn3c(Cc4ccccc4)nnc3SC2)cc1,-5.44
14,O=C(NC1CCCCC1)c1cccc(S(=O)(=O)N2CCOCC2)c1,4.35
15,COc1ccc(/C=C(\NC(=O)c2ccc(C)cc2)C(=O)Nc2c(C)n(C)n(-c3ccccc3)c2=O)cc1,7.24
16,CCN1CCC[C@H]1CNC(=O)c1c(O)c(Cl)cc(Cl)c1OC,1.41
17,O=C1CCN(C(=O)C(Cl)Cl)N1,10.7
18,C/C(=C\C(=O)OCC(=O)NCc1ccccc1)C(=O)OCC(=O)NCc1ccccc1,13
